The full ranking holds about 33,000 sequences; the median of “E-score (-0.5 to 0.5)” is about -0.043, and the highest 2% start at about 0.37. Some of the results follow.
These sequences were tested against T1, Upc2 (UniProt Q12151) (assay: PBM E-score (8-mer binding enrichment) (E-score (-0.5 to 0.5)); higher = stronger / more preferred TF binding; most listed sequences are background and not binding sites). Details: protein concentration: 200 nM; construct: GST-full length.
T1 sequence: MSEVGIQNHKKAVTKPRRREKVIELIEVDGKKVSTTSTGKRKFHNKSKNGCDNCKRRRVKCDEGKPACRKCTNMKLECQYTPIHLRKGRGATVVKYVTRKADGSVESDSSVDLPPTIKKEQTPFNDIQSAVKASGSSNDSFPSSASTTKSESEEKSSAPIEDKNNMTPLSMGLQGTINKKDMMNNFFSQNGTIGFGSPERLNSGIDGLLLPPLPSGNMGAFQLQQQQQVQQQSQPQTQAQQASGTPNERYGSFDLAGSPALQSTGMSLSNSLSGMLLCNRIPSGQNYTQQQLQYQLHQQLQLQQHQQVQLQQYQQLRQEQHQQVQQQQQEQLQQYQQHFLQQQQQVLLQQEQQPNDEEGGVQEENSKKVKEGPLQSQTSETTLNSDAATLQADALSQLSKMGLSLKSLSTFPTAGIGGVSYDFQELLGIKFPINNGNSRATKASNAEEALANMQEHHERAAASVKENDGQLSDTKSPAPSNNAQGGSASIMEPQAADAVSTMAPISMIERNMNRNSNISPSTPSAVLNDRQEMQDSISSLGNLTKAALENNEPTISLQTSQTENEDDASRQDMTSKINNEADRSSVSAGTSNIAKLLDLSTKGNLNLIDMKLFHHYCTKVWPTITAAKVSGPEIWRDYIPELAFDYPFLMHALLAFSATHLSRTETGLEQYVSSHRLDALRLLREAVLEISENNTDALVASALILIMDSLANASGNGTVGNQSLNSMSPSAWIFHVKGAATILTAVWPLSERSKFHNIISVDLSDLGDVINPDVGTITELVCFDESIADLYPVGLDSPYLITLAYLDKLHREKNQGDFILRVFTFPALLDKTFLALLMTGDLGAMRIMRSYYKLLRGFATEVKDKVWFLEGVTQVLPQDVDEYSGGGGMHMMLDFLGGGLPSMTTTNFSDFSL
Description: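 Universal 'all 10-mer' protein binding microarrays (Agilent AMADID 015681) probed with GST-tagged S. cerevisiae TFs (full-length or DBD) made by in vitro transcription/translation (PURExpress), about 100-200 nM. Bound TF was detected with fluorescent anti-GST. Each ungapped 8-mer (which stands for itself and its reverse complement) is scored by the PBM enrichment score (E-score), a modified Wilcoxon-Mann-Whitney statistic from -0.5 to +0.5, computed with the Universal PBM Analysis Suite. Scale: above 0.35 generally sequence-specific binding.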

| Sequence | PBM E-score |
| --- | --- |
| AACTTGGG | -0.165 |
| GACCGCCA | -0.0136 |
| CGTGAGTA | -0.0705 |
| AAGCTCGC | 0.2 |
| ATACATCC | 0.0355 |
| CAATTTCC | -0.0487 |
| GATGCAGC | -0.035 |
| CAACTAGG | -0.207 |
| AGCGCTGG | -0.204 |
| AGGCCGAT | -0.153 |
| AACTTCCA | -0.142 |
| AATCCATT | -0.0406 |
| CGGGAGCA | -0.0972 |
| CACTTTGC | -0.063 |
| GGTGCAGA | -0.299 |
| ATGAACCC | -0.0888 |
| TATGTCCA | 0.0103 |
| GCAGCAAC | -0.0138 |
| AAGCTAAC | 0.0658 |
| ATATTGAG | -0.0874 |
| CTCCCTGA | -0.274 |
| CACCAAAG | 0.0387 |
| CTACCTGA | -0.149 |
| CCGTCTTC | -0.263 |
| AATTGCCT | 0.00346 |

| Sequence | PBM E-score |
| --- | --- |
| AGACCCAT | -0.186 |
| ACGGAGAA | 0.113 |
| GATAGCTA | -0.185 |
| CGACTGAC | 0.137 |
| GTACCAGA | 0.179 |
| CAAATATC | 0.0216 |
| CCCGTACA | 0.398 |
| ACGCTTCT | -0.0666 |
| GAGCTGGA | -0.0714 |
| GCCAACAC | 0.0264 |
| GTGCAGTA | -0.157 |
| CAATCTTC | -0.00081 |
| ATCTCGTG | 0.124 |
| ATTCCCCC | -0.428 |
| TGGTTTAA | 0.00261 |
| CACGCCCC | -0.167 |
| ATACGCAG | 0.352 |
| ATCACTCC | -0.0907 |
| GTTTGCAA | 0.17 |
| AGGTTGTC | -0.191 |
| CGACGCTC | 0.292 |
| ATATTTTC | 0.0135 |
| ACGCTGTC | 0.078 |
| AAGGCCTC | 0.0301 |
| ACTCAAGA | 0.0377 |

| Sequence | PBM E-score |
| --- | --- |
| CTGCACAC | -0.304 |
| CTGGGCCC | -0.229 |
| CTACGAGC | 0.393 |
| CCTAGTCG | 0.0241 |
| AGATAGCG | -0.151 |
| AACGACCG | 0.403 |
| AGTAAATA | 0.0984 |
| ATCTCTGC | -0.143 |
| ATGGCTTG | -0.0935 |
| ATTTACTG | -0.109 |
| AACCTGTG | -0.0467 |
| AATTGGGA | -0.0326 |
| TAACGCTA | 0.144 |
| AACAATGT | -0.0161 |
| CGATTCGA | 0.0594 |
| CCGCGCAA | -0.199 |
| AATGCCCC | -0.0337 |
| ACACTAGT | 0.0847 |
| CCACCCGG | -0.0905 |
| AACAAACT | 0.0644 |
| ACTCAAAG | 0.0201 |
| CAAACGAA | 0.467 |
| ATGAGGTC | -0.191 |
| AGTGGTCA | -0.0559 |
| CCGGATGA | -0.194 |

| Sequence | PBM E-score |
| --- | --- |
| AAGCGTGA | -0.112 |
| AGCAAGCC | -0.133 |
| CCTCGACC | -0.142 |
| CTCAGCGA | 0.0521 |
| CTTTAATA | 0.00229 |
| ACATGCAG | 0.0224 |
| CTACCGAG | -0.028 |
| CTAGTGGC | -0.243 |
| AACAGGTA | -0.0326 |
| AATAGGCC | -0.0987 |
| AGACAAAC | 0.0723 |
| CGTCGAAC | 0.0511 |
| AGAGCCAT | -0.0158 |
| GCCAGTCC | -0.191 |
| CTGCACTC | -0.0503 |
| AGACCCCG | -0.121 |
| CAGTTCCG | -0.0552 |
| AAATTTGG | -0.174 |
| ATAAGCGC | 0.0548 |
| ATGAGTCC | -0.189 |
| ACTGTTTC | -0.111 |
| AGCCCGAC | -0.171 |
| ACCTATCT | -0.16 |
| GACCCCTA | -0.252 |
| GATCGAGC | 0.0552 |

| Sequence | PBM E-score |
| --- | --- |
| CCCACGTC | -0.139 |
| GACAAAGC | 0.0238 |
| AATGAGGG | -0.16 |
| CTTGCACA | -0.188 |
| CGCGGCAG | -0.175 |
| GTTGTCTA | -0.0647 |
| ATCGACAG | -0.0101 |
| CACACAGA | -0.19 |
| AGCCTAAG | -0.151 |
| TATCGATA | -0.144 |
| ACCTGGAT | -0.137 |
| GGAGTAGA | -0.07 |
| ACGCGTAT | 0.333 |
| ACTGTCCA | -0.0712 |
| CCAAGACG | -0.201 |
| CTTGTCGA | -0.0213 |
| AGCTGGTC | -0.0412 |
| AACCTATA | 0.0515 |
| CGTCTAAG | -0.00419 |
| AATCTCAT | 0.112 |
| CTAGGGGA | -0.261 |
| CAGTCACA | -0.0909 |
| CCGTCTGC | -0.179 |
| AAATGTCG | -0.027 |
| AGCCAAAT | 0.0673 |

| Sequence | PBM E-score |
| --- | --- |
| TATTACAA | -0.0303 |
| ACAACGAG | 0.257 |
| ATGCGGTA | -0.0698 |
| TCGTCGCA | 0.169 |
| GAGCTGCC | -0.092 |
| CGGAAAGA | 0.0878 |
| CCAAACTA | -0.124 |
| AACGAACT | 0.371 |
| GACACTGC | -0.0962 |
| CCATAACC | 0.0368 |
| AAGGAGCA | -0.202 |
| CACAATCC | -0.133 |
| CTCGACAG | -0.0352 |
| ATTTTTAG | -0.265 |
| ACTCACGA | 0.00947 |
| CTGGTGTC | -0.0199 |
| TGATCACA | -0.161 |
| AGCAATGA | -0.235 |
| GGAGTTCA | -0.0689 |
| AGCAACGG | -0.0326 |
| ATGAGGCG | -0.181 |
| ATCGGTTG | 0.0684 |
| ACGATAGT | 0.308 |
| CTGGGGGC | -0.204 |
| TAGAACTA | -0.00975 |

| Sequence | PBM E-score |
| --- | --- |
| CGGCAATA | 0.108 |
| AGCCAGGC | -0.163 |
| CCTACGTA | 0.3 |
| CTGGATCA | -0.225 |
| AAATGGCG | -0.0033 |
| CGAATTCA | 0.0713 |
| GGAATTGA | -0.0637 |
| ACTAATGA | 0.015 |
| TCCGCTCA | -0.188 |
| ATTGAAAC | 0.0608 |
| GGGTTACA | 0.051 |
| ACGTATTA | 0.201 |
| CACTCGTA | 0.455 |
| ATCCTACC | -0.166 |
| CTCGCAGA | -0.0867 |
| AGCCGGTG | -0.104 |
| GAGGGTAC | 0.0828 |
| AGGTGATC | 0.0604 |
| ACGTCCAT | -0.0817 |
| AGCGCAGG | -0.228 |
| CGATCACG | 0.096 |
| CGGCCACG | -0.192 |

From the supplement of paper PMC3334620
